Test results from PubChem BioAssay AID493208 (National Center for Advancing Translational Sciences (NCATS), 2011).
Out of some 44,000 compounds screened, about 340 (0.77%) were called active. Another 5% or so got no clear call; they are omitted. Calls come from the whole dose curve; as a rule, active = well fitted inhibition curve with a large enough effect; inconclusive = small, poorly fitted or top-dose-only effect; inactive = flat fitted curve, though single readings scatter. The list shows a part of the results.

assay: Acumen qHTS Assay for Inhibitors of the mTORC1 Signaling Pathway in MEF (Tsc2-/-, p53-/-) Cells: Sytravon; conditions: phospho-rpS6 immunofluorescence/PI, 24 h; series mostly up to 38.3 µM; activity change, negative = inhibition: at the top concentration;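 note: plate controls were DMSO for no effect and rapamycin for full effect; nearly all actives have a fitted effect of over 50% in size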
How it was run: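 Compounds act on Tsc2-/-, p53-/- fibroblasts carrying an empty vector for 24 h before fixation and dual staining for phospho-S6 and DNA (propidium iodide). Values are percentages of cells above a rapamycin-defined pS6/PI threshold.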

Activity change, negative = inhibition, inactive:
CCOC(=O)N1CCc2c(sc3c2c(=O)n(CCc2ccccc2)c(=O)n3Cc2ccc(F)cc2)C1 -16.5%
O=C(CSc1nc(-c2ccccc2)no1)N1CCCCC1 -19.2%
COc1ccc(C(=O)CN2C(=O)N(c3ccc(C(C)=O)cc3)S(=O)(=O)c3ccccc32)cc1 0.265%
Cc1ccc(Cn2nnc(C(=O)Nc3ccc(F)c(F)c3)c2N)cc1 -0.809%
COc1ccc(S(=O)(=O)N2CCC(n3c(C(F)(F)F)nc4cccnc43)CC2)cc1OC 2.11%
CCOc1ccccc1-n1cc2c(c1-c1ccc(OC)cc1)c(=O)n(C)c(=O)n2C 1.89%
Cc1ccc(N(C)C(=O)C2CCN(S(=O)(=O)c3ccc4c(c3)CCCN4C(=O)C3CCC3)CC2)cc1 6.63%
COc1ccc(NC(=O)c2cn(-c3ccccc3)nc2-c2ccc(C)cc2)cc1 10.9%
COC(=O)c1ccc(NC(=O)CN2CCN(c3ccc(Cl)cc3)CC2)cc1 0%
O=C1CC(c2ccccc2)Cc2[nH]c(=O)c(C(=O)Nc3cccc(Cl)c3)cc21 (stereo unspecified) 4.74%
Cc1c(Cl)cccc1NC(=O)CN1C(=O)COc2ccc(S(=O)(=O)Nc3ccccc3)cc21 -18.7%
CCCOC(=O)CSc1nnc2ccc3ccccc3n12 0.126%
O=C(CSc1nc2ccccc2nc1Cc1ccccc1)Nc1ccc2c(c1)OCO2 6.1%
CCOC(=O)c1cccc(NC(=O)C(C)n2c(C)c3cnn(-c4ccccc4)c(=O)c3c2C)c1 (stereo unspecified) -6.22%
COc1ccc(NC(=O)c2ccc3c(c2)CCN3S(=O)(=O)c2ccc(C)cc2)cc1Cl 0.404%
Cc1ccc(NC(=O)CN(C)S(=O)(=O)c2ccc3nc(C)sc3c2)c(C)c1 -0.0438%
CC(C)NS(=O)(=O)c1ccc2nc(NC(=O)c3cncc(Br)c3)sc2c1 2.78%
COc1cc(NC(=O)CSc2nc3nc(C)c(Cc4ccc(C)cc4)c(C)n3n2)cc(OC)c1 -11.3%
COc1ccc(Cl)cc1NC(=O)CCc1c(C)nc2c(c1C)c(=O)n(C)c(=O)n2C -0.351%
CCCSCCCNC(=O)c1ccc(Cn2c(=O)c3cccn3c3cccnc32)cc1 -2.18%
Cc1nc(-c2ccccc2)sc1CCNC(=O)c1ccco1 -11%
CCN(C(=O)Cn1ncc2c1-c1cc(C)ccc1OC2)c1cc(Cl)ccc1OC -4.34%
CCc1ccccc1NC(=O)CSc1ncc2c(n1)-c1ccccc1N(Cc1ccc(C)cc1)S2(=O)=O -15.5%
COc1ccccc1CNS(=O)(=O)c1c(C)nc2sccn2c1=O 0.0604%
CCN(Cc1ccccc1)C(=O)CCNS(=O)(=O)c1ccc2c(c1)CC(C)N2C(C)=O (stereo unspecified) -3.48%
Cc1ccc(S(=O)(=O)c2cn(Cc3ccccc3)c3cc(N4CCCC4)c(F)cc3c2=O)cc1C -12.4%
COc1cccc(CNC(=O)CCc2c(C)c3cc4c(C)c(C)oc4cc3oc2=O)c1 2.61%
CCOC(=O)c1ccccc1NS(=O)(=O)c1c(-c2ccc(C)cc2)csc1C(=O)OC -4.97%
CC(C)(C)C(=O)Nc1ccc2nc(SCC(=O)N3CCCC3)sc2c1 -4.92%
O=C(Nc1ccc(NC(=O)c2cccs2)cc1)c1ccc(Br)cc1 10.2%
O=C(OCc1ccccc1Cl)c1ccc(-c2nnn(Cc3ccccc3)n2)cc1 4.82%
CC(C)Oc1ccc(CNC(=O)c2ccc(NC(=O)c3nsc4ccccc34)cc2)cc1 -1.44%
CCN(CCCNC(=O)c1cc2cc3cc(C)ccc3nc2s1)c1cccc(C)c1 -0.0481%
COc1ccc(/C=C(/C#N)c2nc(-c3ccc(-c4ccccc4)cc3)cs2)cc1 -15.2%
Cc1ccc(C)c(NC(=O)C(=O)NCCc2csc(-c3ccc(C(F)(F)F)cc3)n2)c1 -1.41%
CCOC(=O)Cn1c(=O)cc(-c2ccccc2)c2c(C)nn(C)c21 1.42%
CCC(C)NC(=O)Cn1c(=O)n(-c2ccc(C)cc2)c(=O)c2ccccc21 (stereo unspecified) -4.65%
CCc1ccccc1N(CC)C(=O)c1cc2c(s1)-c1ccccc1OC2 -5.06%
CCc1ccc(-n2nc(CO)c(C(=O)NCc3ccccn3)n2)cc1 -3.3%
COc1ccc(OC)c(CCNC(=O)c2ccc(CS(=O)Cc3cccc(Cl)c3)o2)c1 (stereo unspecified) 1.41%
Cc1ccccc1CSc1nc2nc(C)c(Cc3ccccc3)c(C)n2n1 5.38%
Cc1nc(-c2ccccc2)sc1-c1ccc(SCC(=O)Nc2ccc(F)cc2F)nn1 1.52%
Cc1oc2ncnc(N3CCCCC3)c2c1C(=O)NCC1CCN(Cc2ccc(F)cc2)CC1 -4.5%
COc1ccc(-n2ncc(C(=O)N3CCN(c4ccccn4)CC3)c2C2CCN(C(=O)OC(C)(C)C)CC2)cc1 -7.66%
CCC(CC)c1nn2c(=O)cc(COc3ccc(NC(=O)c4ccc(Cl)cc4)cc3)nc2s1 -1.3%
COCCNc1nc(NCc2ccccc2OC)c2cnn(C)c2n1 5.63%
CC(Sc1oc(-c2ccco2)nc1S(=O)(=O)c1ccc(Br)cc1)c1ccccc1 (stereo unspecified) -16.2%
CCCCNc1nc(Oc2ccc(=O)n(-c3ccccc3)n2)nc(N(C)C)n1 1.51%
CN(C(=O)c1nn(C)c2c1COc1ccccc1-2)c1cccc(C(F)(F)F)c1 0.676%
COc1ccc(N2CCN(CCCNC(=O)c3cnn(-c4ccc(F)cc4)c3-n3cccc3)CC2)cc1 0.895%
CCOC(=O)c1cn(CC(=O)Nc2cccc(Cl)c2C)nn1 -0.641%
COc1ccc(N2CCN(c3nc(-c4ccccc4F)nc4ccccc34)CC2)cc1 -2.93%
O=C(CN(c1cccc(Br)c1)S(=O)(=O)c1ccccc1)N1CCc2ccccc2C1 18.1%
COCCNC(=O)c1c(NC(=O)Cc2coc3cc(C)ccc23)sc2c1CCCC2 1.39%
CCC(C)NC(=O)c1ccc2c(c1)N(Cc1cccc(Cl)c1)C(=O)c1ccccc1S2=O (stereo unspecified) -0.48%
CCOc1ccccc1NC(=O)C(NS(=O)(=O)c1cccc2nsnc12)c1ccccc1 (stereo unspecified) -6.59%
Cc1nnc(N2CCN(c3ccccc3F)CC2)c2c1nnn2Cc1ccc(F)cc1 0.208%
COC(=O)c1c(NC(=O)CCCOc2ccc(C)cc2)sc2c1C(C(=O)OC)CC2 (stereo unspecified) 11%
CCc1cccc(CC)c1NC(=O)c1cc(S(=O)(=O)N2CCc3ccccc32)cn1C -8.78%
Cc1ccc(CN2CCCn3nc(C(=O)NCCN(C)C)cc3C2=O)cc1 0%
COc1ccc(-c2ccc(NS(=O)(=O)c3ccc(F)c(C(F)(F)F)c3)cc2)nn1 -20.4%
